# Measurements taken from publication PMC4336329 (PLoS ONE, 2015).
# Screen size: about 310,000 compounds; about 2,200 (0.71%) showed an effect of 50% or more. The effect is printed as a negative number. Some of the results follow.
# Target: human ether-à-go-go-related gene (hERG) potassium channel (human, UniProt Q12809)
# Experiment: primary screen, population patch clamp on CHO cells stably expressing hERG
# Chain of human ether-à-go-go-related gene (hERG) potassium channel (Q12809 whole entry, looked up): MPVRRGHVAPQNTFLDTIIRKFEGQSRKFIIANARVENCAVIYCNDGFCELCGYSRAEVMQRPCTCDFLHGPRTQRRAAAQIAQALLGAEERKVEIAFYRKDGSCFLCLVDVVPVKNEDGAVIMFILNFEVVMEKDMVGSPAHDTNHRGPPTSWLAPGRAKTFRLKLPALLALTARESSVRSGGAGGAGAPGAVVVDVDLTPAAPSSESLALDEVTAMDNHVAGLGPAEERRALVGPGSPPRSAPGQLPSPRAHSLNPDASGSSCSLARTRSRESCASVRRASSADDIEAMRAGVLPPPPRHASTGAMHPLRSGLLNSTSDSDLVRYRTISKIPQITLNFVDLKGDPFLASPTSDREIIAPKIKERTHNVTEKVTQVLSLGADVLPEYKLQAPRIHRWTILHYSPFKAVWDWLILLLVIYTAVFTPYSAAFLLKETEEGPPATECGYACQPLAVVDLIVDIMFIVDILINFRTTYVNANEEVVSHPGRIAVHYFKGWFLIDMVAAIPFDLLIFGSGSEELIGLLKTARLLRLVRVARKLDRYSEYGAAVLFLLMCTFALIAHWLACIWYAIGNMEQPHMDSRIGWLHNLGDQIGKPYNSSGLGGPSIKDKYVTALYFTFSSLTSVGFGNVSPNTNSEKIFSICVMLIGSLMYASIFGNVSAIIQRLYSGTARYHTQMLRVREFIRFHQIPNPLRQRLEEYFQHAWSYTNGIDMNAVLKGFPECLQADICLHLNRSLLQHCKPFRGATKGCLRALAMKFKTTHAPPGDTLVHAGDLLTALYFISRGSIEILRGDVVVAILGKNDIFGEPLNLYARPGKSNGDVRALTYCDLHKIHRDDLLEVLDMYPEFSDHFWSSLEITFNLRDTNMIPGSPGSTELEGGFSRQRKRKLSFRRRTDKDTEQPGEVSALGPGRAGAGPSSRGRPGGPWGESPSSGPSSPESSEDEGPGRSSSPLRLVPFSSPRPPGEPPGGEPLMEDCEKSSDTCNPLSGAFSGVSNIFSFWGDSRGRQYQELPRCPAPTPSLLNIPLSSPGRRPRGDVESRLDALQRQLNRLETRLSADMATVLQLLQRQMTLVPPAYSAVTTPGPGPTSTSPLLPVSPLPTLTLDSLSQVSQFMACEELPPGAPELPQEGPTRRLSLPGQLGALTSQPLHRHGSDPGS
row,Compound,"hERG current change (%, negative = inhibition) at 1uM"
1,CCN(Cc1ccccc1)S(=O)(=O)c1c(C)[nH]c(C)c1C(=O)N1CCCCC1,1.43%
2,CCOC(=O)N1CCN(C(=O)Cn2nc(C)n3nc(-c4ccc(OC)cc4)cc3c2=O)CC1,13.8%
3,COCCCNC(=O)CN(c1cc(Cl)ccc1OC)S(=O)(=O)c1ccc(C)c([N+](=O)[O-])c1,10.6%
4,CC1CCCCN1C(=O)Cn1cc(C=O)c2ccccc21 (centres unmarked),0.694%
5,CC1CCCCN1c1nnc(NC(=O)c2cc(-c3ccc(Br)cc3)on2)s1 (centres unmarked),-0.29%
6,O=C(Nc1cccnc1)c1c(F)c(F)c(F)c(F)c1F,1.27%
7,COc1ccc(C(=O)NCc2nnc(SCC(=O)c3ccccc3)n2C)cc1OC,-5.16%
8,O=C(O)c1cc(-c2ccccc2)nc(-c2ccccc2)c1,11.1%
9,CCOC(=O)N1CCN(C2=NC3(CCCCC3)C(C#N)C(=O)N2)CC1 (centres unmarked),5.2%
10,CCCC1=[N+](CC(C)=O)CCn2c(C)ccc21.[Br-],11.9%
11,COCCNC(=O)c1csc(Nc2cccc3ccccc23)n1,7.31%
12,Cc1cc2ccccc2c(=O)n1CC(=O)NCC(=O)N1CCCC1,6.44%
13,COc1ccc([N+](=O)[O-])cc1NC(=O)Nc1ccccc1,16.5%
14,Clc1ccc(OCc2nnc(-c3ccccc3Br)o2)c(Cl)c1,11%
15,O=C(OC(C(=O)Nc1ccc(Cl)c(C(F)(F)F)c1)c1ccccc1)C1=COCCO1 (centres unmarked),10%
16,CCN(Cc1ccncc1)C(=O)c1cc(COc2ccc(C)c(C)c2)on1,-5.56%
17,O=C(COc1ccccc1)N1CCN(S(=O)(=O)c2cccs2)CC1,-7.49%
18,COc1ccc(-n2c(O)c(C(C)=NC3CC3)c(=O)[nH]c2=O)cc1,6.49%
19,Cn1c(SCC(=O)N2CCc3ccccc3C2)nnc1-c1cccs1,-24.1%

row,Compound,"hERG current change (%, negative = inhibition) at 1uM"
1,COc1ccc(S(=O)(=O)N2CCC3(CC2)OCCN3S(=O)(=O)c2ccc(OC)cc2)cc1,-2.15%
2,O=C(Nc1c2c(nn1-c1ccc([N+](=O)[O-])cc1)CS(=O)(=O)C2)c1cccs1,3.14%
3,CCOCCCNC(=O)C(c1ccc(Cl)cc1)N(Cc1cccs1)C(=O)c1ccccn1 (centres unmarked),8.13%
4,CCN1CCN(CCCNC(=O)c2ccccc2NC(=O)C2=C(C)OCCS2)CC1,10.1%
5,O=C(CN1C(=O)COc2ccccc21)NCCN1CCC(Cc2ccccc2)CC1,-19%
6,CCSc1nc2ccccc2n1CC(=O)N1CCCCC1,9.11%
7,COc1ccccc1CNC(=O)COC(=O)c1ccccc1-c1ccccc1,14.1%
8,COc1ccc(C2c3[nH]c4ccccc4c3CCN2C(=O)c2cn3ccccc3n2)c(F)c1 (centres unmarked),13%
9,COC(=O)C1=C(C)NC(C)=C(C(=O)OC)C1C(=O)OCC(=O)c1ccc(F)cc1,12.4%
10,CCOc1ccc(S(=O)(=O)NCc2ccc3c(c2)OCO3)cc1NC(C)=O,14.7%
11,Cc1ccc(C2(C)NC(=O)N(CC(=O)NNC(=O)c3ccccc3)C2=O)cc1 (centres unmarked),11.7%
12,COc1ccccc1C(=O)NCCC(=O)NCC1COc2ccccc2O1 (centres unmarked),8.08%
13,Cc1ccc(-c2nc(-c3ccncc3)no2)c(Cl)c1,24.2%
14,O=C(c1ccccc1C(=O)N(c1ccccc1)c1ccccc1)N1CCCCC1,9.86%
15,O=C(CSc1nnc(-c2ccc3c(c2)OCCO3)o1)N1CCCC1,4.79%
16,CCOC(=O)c1c(N)sc2c1CCC(C)C2 (centres unmarked),-0.273%
17,O=C(CSc1nnnn1-c1ccccc1)NCC1(N2CCOCC2)CCCCC1,12.9%
18,COc1ccc(NC(=O)CN2CCN(C(=S)NC3CCCC3)CC2)cc1,-16.2%
19,CC1CN(C(=O)Nc2ccc(Br)cc2Cl)CC(C)O1 (centres unmarked),9.73%

row,Compound,"hERG current change (%, negative = inhibition) at 1uM"
1,O=C(/C=C/c1c(F)cccc1Cl)c1ccc(O)cc1,10.1%
2,CC1NC(=O)NC1CCCCCC(=O)Nc1ccc(F)cc1 (centres unmarked),-0.454%
3,CCN(CC)C(=S)Oc1c(Cl)cccc1Cl,3.08%
4,Cn1c(NC(=O)c2ccc(F)cc2)nc2ccccc21,15.3%
5,COc1cc(C(=O)Nc2cc3c(cc2N2CCCCC2)n(C)c(=O)n3C)cc(OC)c1OC,18.3%
6,CCc1ccc(OCC(=O)NC2CC(C)(C)NC(C)(C)C2)cc1,0.201%
7,Cn1c(N)c(C(=O)COC(=O)c2ccc(Cl)c(S(=O)(=O)N3CCCCC3)c2)c(=O)n(C)c1=O,9.84%
8,COc1ccc(CCn2c(C)cc(C(=O)COC(=O)c3cnccn3)c2C)cc1,5.85%
9,COc1cc(OC)c2ccc(=O)oc2c1C(CC(=O)N1CCCC1)c1ccc(N(C)C)cc1 (centres unmarked),14.9%
10,CC(CC(=O)Nc1nnc(C(C)(C)C)s1)c1ccccc1 (centres unmarked),7.98%
11,Cn1c2c(c(=O)n(C)c1=O)C(NS(=O)(=O)c1ccc(Cl)cc1)(C(F)(F)F)C(=O)N2 (centres unmarked),-2.13%
12,COc1ccc(C2/C(=C(\O)c3ccc4c(c3)OCCO4)C(=O)C(=O)N2c2nc(C)c(C(C)=O)s2)cc1 (centres unmarked),8.1%
13,O=C(NCCN1CCCCC1)Nc1ccc(F)c(Cl)c1,13.6%
14,COCCn1c(-c2ccc(OC)cc2)c(-c2ccc(OC)cc2)oc1=O,-1.77%
15,COC(=O)Cn1c(=O)c2c(nc3n2CCCN3CCc2ccc(OC)c(OC)c2)n(C)c1=O,5.05%
16,COc1cc(OC)cc(C(=O)NC(=S)NCCc2ccccc2)c1,-9.12%
17,CCOc1ccc(NC(=O)CCN2CCN(c3ccccc3F)CC2)cc1,12.1%
18,CCOC(=O)C1=C(C)NC(=O)NC1c1c(OC)ccc2ccccc12 (centres unmarked),13.3%
